# Assay results taken from ChEMBL document CHEMBL4888484, “Replenishing the malaria drug discovery pipeline: Screening and hit evaluation of the MMV Hit Generation Library 1 (HGL1) against asexual blood stage Plasmodium falciparum ,using a nano luciferase reporter read-out” (2022).
# Hit rate of the full screen: of about 150,000 compounds, about 540 (0.36%) showed an effect of 50% or more. The list shows a part of the results.
# Test system: Plasmodium falciparum
# Test: Primary screen in NF54 nanoGlo assay, in single point, at 2uM, 72h; a lower Z score goes with more inhibition
# Type: functional, Erythrocyte
# Details: timepoint 72 hour
Compound,% Inhibition [%],Z score
CC(C)OCCNC(=O)c1cc(Cl)cc(F)c1Br,-2,0.42
Cc1cc(NCCc2nccn2C)ncn1,35,-5
Cn1ccc(C(=O)NC2CCN(Cc3ccccc3)CC2)cc1=O,-4,0.82
NC(=O)[C@H]1CCCN(CCNC(=O)c2cc(-c3ccc(O)cc3)n[nH]2)C1,-8,0.86
O=C1CN(CCCO)[C@@H](Cc2ccccc2)CN1c1cccc(-c2ccccc2)c1,-6,0.54
Cc1nsc(N2CCS(=O)(=O)c3ccccc3C2)n1,-7,1.18
CCc1cnc(C)nc1N1CCC[C@@](CO)(CC2CC2)C1,-3,0.48
COc1cc(=O)n(C)cc1C(=O)N[C@H](c1cccnc1)C1CCOCC1,-11,2
O=C(Cn1ccccc1=O)N[C@@H]1[C@H]2CCO[C@H]2[C@H]1Cc1ccccc1,-5,0.83
CCNC(=O)N[C@H](c1ccccc1OC(F)F)C(F)(F)F,10,-1.18
COc1cccc([C@H](C)n2ccnc2-c2[nH]cnc2C)c1,0,-0.06
CC1CCN(Cc2ccc(C(=O)NCCc3n[nH]c(N)n3)o2)CC1,-9,1.72
Cn1nc(NC(=O)Cc2ccco2)cc1C(F)(F)F,-7,0.76
N#CC1(c2ccccn2)CCN(C2Cc3ccccc3C2O)CC1 (stereo unspecified),-8,1.45
COC(=O)Cc1nnc(NC(=O)C(C)C)s1,-10,1.32
COc1ccc(CN2CC(CN(Cc3ccc(F)cc3)C(C)=O)C(c3ccc(OC)cc3)C2)cc1 (stereo unspecified),-10,1.03
COc1ccccc1OCCN1C[C@@H](C(=O)Nc2cnn(C)c2)CC1=O,4,-0.62
Clc1ccccc1-c1c[nH]c([C@@H]2CCCN2)n1,39,-5.22
Cn1cc(C(N)=O)c(NCC2CCC2)n1,-6,0.61
COc1ccc(Cl)c2c1CCC[C@@H]2NCc1ncnn1C(C)(C)C,6,-0.72
CC[C@H](NC(=O)c1nnc2n1CCCC2)c1cn2cccnc2n1,-5,0.78
Nc1c(C(=O)NCCOCC(F)(F)F)ccnc1C(F)(F)F,1,-0.21

Compound,% Inhibition [%],Z score
Cc1ccc(-c2cn(C3CCN(C(=O)Nc4ccsc4)CC3)nn2)cc1,-9,1.31
O=C(C[C@@H]1C=CCC1)NCCc1ccc(F)cc1,2,-0.3
O=C1CN(c2ccc(NC(=O)c3ccc(-c4ccccc4F)o3)cn2)CCN1,-14,2.75
Nc1ncc(C(=O)NC2(CO)CCCCCC2)s1,-2,0.44
CCCCNC(=O)N[C@H](c1ccc(C)c(F)c1)C(Cl)(Cl)Cl,-7,0.87
Cc1nc(C)n(C[C@H](C)NC(=O)c2cccs2)n1,-3,0.45
N#Cc1cccc(C(=O)N2CCC3(CCC(=O)N(Cc4cccnc4)C3)CC2)c1,-7,0.95
Cc1cccc(N/C(=N/N)c2ccc3ccccc3n2)c1,-4,0.56
C[C@@H]1CN(C[C@@H]2CN(c3ncccc3F)C[C@@H]2CO)C[C@H](C)O1,13,-1.65
CC(c1nccs1)N1CCN(C(=O)C(N)C2CCC2)CC1 (stereo unspecified),-10,1.97
COc1ccc(-c2ccc(=O)n(-c3c(C)noc3C)n2)cc1S(=O)(=O)NCc1ccccn1,17,-2.03
O=C(NC1CCN(Cc2ccccc2)CC1)[C@H]1CCC(=O)N(C2CCCCCC2)C1,-6,0.7
CC(C)Cc1nc(-c2ccccc2C#N)n(-c2ccccn2)n1,-4,0.59
CCc1ncnc(N2CC[C@H](C(N)=O)C2)c1F,-9,1.55
O=C(NCCc1csc(N2CCCC2)n1)N[C@H]1CCO[C@@H]1c1cccnc1,0,0.03
CCNC(=O)N1CCN(C2CC(C)OC(C)C2)CC1 (stereo unspecified),33,-3.76
O=C(CC1CCCCC1)NCc1ccccc1CN1CCOCC1,-8,1.6
Cc1nc2n(n1)C[C@@H](c1nc(Cc3conc3C)no1)CC2,-4,0.73
CCNC(=O)N1CC[C@H](NCc2cc(F)ccc2Br)C1,-10,0.9
CO[C@H]1[C@@H]2CC[C@H]1CN(Cc1coc(-c3ccccc3)n1)C2,-19,2.43
Cc1nn(C)cc1C(C)NC(=O)NC[C@@H]1C[C@@H](C(C)C)c2ccccc21 (stereo partly specified),-11,1.75
